The source gives no read counts; variants with many changes may rest on few reads.
B1: CPEB3 Ribozyme (parent)
chain: UAACAGGGGGCCACAGCAGAAGCGUUCACGUCGCAGCCCCUGUCAGAUUCUGGUGAAUCUGCGAAUUCUGCUGUAUAUCUC

Variants of: B1
Test: self-cleavage, relative activity (ratio to wild type); higher = more cleavage; in vitro, sequencing
Outline: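 Relative activity was defined as the cleaved/total read fraction for a variant divided by the same fraction for the unmutated ribozyme. CPEB3 self-cleaving ribozyme libraries were made by rounds of error-prone PCR, barcoded, and transcribed in vitro with T7 RNA polymerase for 5 hours at 37°C, and cleavage ran through transcription plus a 15 min DNase I step before EDTA. Illumina sequencing of template-switched reverse transcripts gave the reads, and DNA sequencing mapped the barcodes. Averages come from three batches, using variants with at least 5 reads.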

Variant	self-cleavage
A5G A28G U74A	0.63
A5G A20U C32G A35U	0.11
A5G A18U C39A U80C	0.52
A5G A20U U26A A64G	0.29
A5G G6A A15U	0.1
A5G A35U U43A A57U	0.07
A5G A21G A35U A45G A47G U67C	0.05
A5G C40U U43C U49C A75U	0.07
A5G A28G U66C U69C U72C C79A U80C	0.19
A5G C12U U25C U31C U41C U54A U67C	0.07
A5G A45U A57U	0.25
A5G A45G U69C	0.23
A5G A21G U26C U31C A35C U54A U78C	0.12
A5G C12G A21G A45U	0.52
A5G C12A A75G	1.02
A5G C17U C40G U60A A64G	0.22
A5G A20G U31C A65G U80C	0.13
A5G A35U A75G	0.16
A5G C12U U49A	0.58
A5G A20U U31G U54C U67A G73A	0.73
A5G A20G A47G G73C	0.86
A5G C17U G30A A56C U60A A64G	0.06
A5G A18U A45G U51A U54C U72A	0.26
A5G A21G C68U U72A U76C	0.63

Variant	self-cleavage
A5G C23G U48C A56U C59U	0.08
A5G C40U U69A	0.26
A5G A20G U41A G63A A64C U78C	0.1
A5G A20G U25C A57G U60C	0.48
A5G C17G U25C U26C A47G U67C U72G	0.13
A5G A56G U78C	0.41
A5G A20G C37G A45G G52U G61C	0.09
A5G C17U G24A U49C A56U G70A	0.05
A5G C71U A77G	0.33
A5G A35C U51C U74A	0.58
A5G A35G A65U U66C U69C	0.29
A5G C11U U25C C38G U41A	0.05
A5G A18U C59A	0.41
A5G G6C C23G U25C U49A	0.39
A5G A47G U54C U58C C59G	0.29
A5G A18G U31C G46U C62G A75U	0.17
A5G A35U U69A	0.07
A5G A57G U69A	0.42
A5G A57C U80C	0.1
A5G A45G U54C U67C	0.34
A5G C11G C29U U31C A57G A64G	0.21
A5G A64G C81U	0.77
A5G C11A A18U U31C G52A U69A	0.19
A5G A35G A47G A56G	1.08

Variant	self-cleavage
A5G C34A C37G U41A U54C U67C A75C	0.12
A5G A20G G55U U60C U72C	0.29
A5G A20U U25C G63U	0.37
A5G C12U U25C U26C A28U	0.06
A5G C17U A21U A28G A75G U78C	0.16
A5G A21G G30C G55A A65G	0.1
A5G A45U U49C A64G	0.51
A5G A35G U69C	0.71
A5G A20U U31C	0.42
A5G A56G A57G U58C	0.34
A5G A45U A65U	0.23
A5G C32U U72A	0.2
A5G A21C U26C A35U U60C A65G U66C	0.32
A5G C40U U51C A65G U69A U80C	0.04
A5G C39G U80C	0.1
A5G A18U U76A	0.36
A5G C11A A21G U31C A45G	0.06
A5G A18G U48C U72A	0.1
A5G A28G A56U U78C	0.34
A5G C11U A45G U72C	0.39
A5G A35C U43C A77G	0.54
A5G A21U A35U C68A U80A	0.38
A5G A64U U72G	0.41
A5G A20G U58C U67C	0.14

Variant	self-cleavage
A5G A20G A64U U67A	0.33
A5G A18U U43A A57G G70C C81U	0.1
A5G A20G U31A	0.67
A5G G6A U31A	0.32
A5G A18G A35U U49C U67C U80A	0.08
A5G A20U U67G	0.64
A5G A21G U43C U48C U51C U72C	0.19
A5G A20U A57G A64G U67A U69A U72C	0.04
A5G A20U U80A	0.56
A5G C12U A13G A28U U43C U54C U58C	0.05
A5G C40A U51A U60A U66A U76A	0
A5G A45G U74C	0.84
A5G A47G U49C C68U	0.04
A5G C29U A35U U51C A57G	0.09
A5G A21G C23A A47G C50U U60C	0.2
A5G C32U U43C	0.22
A5G A35G U60C	0.6
A5G C14A U60C	0.38
A5G C44G U72C	0.31
A5G C38G U51G U54C U69C U72C	0.29
A5G C11G U41A A64U U69A	0.07
A5G C12U U66C	0.19
A5G C12U U43A U58C U60C U76C	0.15
A5G C29U U72A	0.27

Variant	self-cleavage
A5G A18U U41G U60A A64G	0.4
A5G A35U U80A	0.45
A5G C23U G53A U76C	0.16
A5G A18G U51C A65G	0.42
A5G C17A U41C A64G C71G G73A	0.3
A5G A21G A47G U74C	0.77
A5G A21G U26C A28G C39A U69A	0.04
A5G C12U A18C U25C U80A	0.08
A5G C40U U51C A57G	0.3
A5G A18G U26A U43A A57G C68U	0.1
A5G C39A C62U G70A U78C	0.07
A5G A20U U25C U43C	0.39
A5G A20G A28C U51A U54C U80A	0.59
A5G A20G A57G U58C U72A A75U	0.12
A5G C11G C23G C39A U41C	0.07
A5G A21U U31A U76C	0.31
A5G A28G U41A U76C A77G	0.11
A5G A18G U26A C38A U58C U66C U69C	0.22
A5G C17U A21G	0.27
A5G A20G A47G A56U	0.21
A5G C32A U48A A64G	0.09
A5G A28G A35U U43A	0.36
A5G C12U U48C U51A C62U	0.25
A5G A18G U26G A45U A47G U58C A77C	0.25

Variant	self-cleavage
A5G C11G U72C	0.49
A5G C27A G42U	0.48
A5G A18G U51A U69A U72C A75G	0.14
A5G A20G U67A	0.24
A5G G6A A20U A21G U25C	0.3
A5G C32U A64U	0.27
A5G A18G A64U U67A	0.09
A5G A18U G30U A35G U41C U49C U72C	0.04
A5G A28U A56U	0.14
A5G C32U A45C U58C	0.21
A5G A45U U60C	0.28
A5G A21C A45G	0.39
A5G A64G A77U	0.64
A5G C44G C62G	0.29
A5G A45U A56U U60C U69C	0.23
A5G A20U A28G C40A U54G G55U U58A	0.07
A5G C12U C14G U25C U26C	0.13
A5G A35U C40U	0.26
A5G A65G U69A U78A	0.34
A5G A56U G73A	0.77
A5G C12A A18U A20G C44U C71U	0.04
A5G A28G U54C G55U C59A	0.06
A5G C11U A15G U49A	0.63
A5G C17A G30A A47G C79A	0.2

Variant	self-cleavage
A5G A45U U49C A56G	0.3
A5G A18G G33C U54A	0.39
A5G C23U G24A A57G U72C	0.14
A5G C32U C40U U69A U80C	0.09
A5G A20U A56G	0.36
A5G A56U U58A U80C	0.24
A5G C17G A57U	0.7
A5G A21U U80C	0.65
A5G A47G U72C	0.76
A5G C27U U60C	0.47
A5G C12U A15G U25C A35U	0.37
A5G A35G C68U U74C	1.22
A5G A20G U25C A35G	0.37
A5G G6A G8U A20G A21G A28U U80C	0.06
A5G A35G U72C	1.18
A5G A21G G22C U25C	0.17
A5G C17U A64G U72C	0.36
A5G C32G U49C A64U	0.09
A5G A18G U25A U66A	0.07
A5G C38U U51C U54C	0.18
A5G C12A A21U C32U A47U A57U	0.06
A5G A18G U43A C79A	0.86
A5G C12U A64C	0.22

Reference: the RNAGym collection of RNA variant scans (doi:10.1093/nar/gkz1192)
